The text below walks through data of article PMC6664820, “Novel natural and synthetic inhibitors of solute carriers SGLT1 and SGLT2” (Pharmacology Research & Perspectives, 2019).

Counter-ions that a name gives are not always drawn.

The subject of assay [1] is transporters. Also noted: method as in earlier work. The note with it: known transporter targets, per category of inhibited transporters; cited from earlier work.
For assay [2], the target named is T1, SGLT1 (Homo sapiens, UniProt P13866).
T1 sequence (P13866 1-664): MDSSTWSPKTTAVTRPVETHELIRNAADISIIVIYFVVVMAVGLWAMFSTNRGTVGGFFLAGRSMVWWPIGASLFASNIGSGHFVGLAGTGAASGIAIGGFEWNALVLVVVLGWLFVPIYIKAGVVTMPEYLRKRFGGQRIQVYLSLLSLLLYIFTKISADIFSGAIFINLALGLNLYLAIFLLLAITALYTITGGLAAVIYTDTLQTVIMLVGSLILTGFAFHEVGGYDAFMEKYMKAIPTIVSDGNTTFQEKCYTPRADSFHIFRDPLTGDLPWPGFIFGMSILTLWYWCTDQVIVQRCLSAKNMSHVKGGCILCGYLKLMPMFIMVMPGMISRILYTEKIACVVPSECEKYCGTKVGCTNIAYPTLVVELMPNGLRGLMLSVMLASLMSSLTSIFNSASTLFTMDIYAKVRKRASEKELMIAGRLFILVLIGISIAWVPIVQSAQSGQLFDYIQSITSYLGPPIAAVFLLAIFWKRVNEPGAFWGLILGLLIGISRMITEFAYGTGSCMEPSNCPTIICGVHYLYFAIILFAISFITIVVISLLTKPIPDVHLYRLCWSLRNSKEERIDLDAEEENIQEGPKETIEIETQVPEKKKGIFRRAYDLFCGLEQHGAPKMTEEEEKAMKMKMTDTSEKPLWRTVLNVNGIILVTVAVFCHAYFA
The experiment in a line: SGLT1 inhibition assay for validation of screening hits and similar compounds (1‐NBD‐glucose uptake, CHO‐hSGLT1 cells). The class given is cell-based. Further details: activity: dose or concentration left out as unconfirmed.

In assay [3] the target is T2, hSGLT2 (Homo sapiens, UniProt P31639).
T2 sequence (P31639 1-672): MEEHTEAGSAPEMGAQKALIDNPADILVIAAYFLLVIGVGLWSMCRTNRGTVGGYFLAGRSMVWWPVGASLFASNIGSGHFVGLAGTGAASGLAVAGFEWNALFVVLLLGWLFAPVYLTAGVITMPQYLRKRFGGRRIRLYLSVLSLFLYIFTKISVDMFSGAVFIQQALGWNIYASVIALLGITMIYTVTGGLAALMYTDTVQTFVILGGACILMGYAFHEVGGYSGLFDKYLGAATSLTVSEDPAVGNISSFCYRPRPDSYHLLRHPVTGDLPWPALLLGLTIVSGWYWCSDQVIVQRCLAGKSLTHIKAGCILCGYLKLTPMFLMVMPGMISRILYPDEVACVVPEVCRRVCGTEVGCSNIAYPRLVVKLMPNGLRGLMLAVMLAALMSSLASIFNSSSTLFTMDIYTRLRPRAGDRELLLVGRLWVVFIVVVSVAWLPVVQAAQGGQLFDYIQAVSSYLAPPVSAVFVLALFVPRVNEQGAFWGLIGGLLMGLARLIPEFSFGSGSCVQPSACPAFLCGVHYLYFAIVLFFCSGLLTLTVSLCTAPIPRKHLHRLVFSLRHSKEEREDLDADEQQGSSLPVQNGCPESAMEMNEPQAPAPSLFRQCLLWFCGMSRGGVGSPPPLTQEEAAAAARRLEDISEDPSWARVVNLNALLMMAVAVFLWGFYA
Briefly: SGLT2 inhibition assay for validation of screening hits and similar compounds (1‐NBD‐glucose uptake, CHO‐hSGLT2 cells). The note with it: 0.5 h, read-out: NORMALIZED SGLT2 ACTIVITY (%). The class given is cell-based.

Setting [4] is: 0.5 h, read-out: NORMALIZED SGLT1 ACTIVITY (%).

As for `Cc1ccccc1C(OCCN(C)C)c1ccccc1` (stereo not shown) [orphenadrine, reference compound], in assay [1], the “INHIBITED TRANSPORTERS” value is “SLC6A2, SLC6A3, SCN10A”. For the same compound, the “SGLT1/2 inhibition stated in words” value in assay [2] is “novel SGLT1/2 inhibitors”.

As for `CN1CCC[C@@H]1CCO[C@](C)(c1ccccc1)c1ccc(Cl)cc1` [clemastine, reference compound], in assay [2], the “SGLT1/2 inhibition stated in words” value is on record as “showed SGLT1/2 inhibition”.

As to `Cc1ccccc1C(OCCN(C)C)c1ccccc1` (stereo not shown) [Orphenadrine HCl], in assay [2] (read-out: NORMALIZED SGLT1 ACTIVITY (%) Mean), the activity turned out to be 90%.

For the compound `CN1CCC[C@@H]1CCO[C@](C)(c1ccccc1)c1ccc(Cl)cc1` [Clemastine fumarate], in assay [3], the remaining activity at 5 µM was determined as 91% and the remaining activity at 50 µM stood at 51%. In assay [2] (setting [4]), the remaining activity at 5 µM was 94% and the remaining activity at 50 µM is 59%.

On to `CN(C)CCN(Cc1cccs1)c1ccccn1` [Methapyrilene HCl], for which, in assay [3], the remaining activity at 5 µM amounted to 96% and the remaining activity at 50 µM was found to be 68%.
